Data as given in PubChem BioAssay (NCI).
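Briefly, cells in 96-well plates were exposed to five compound concentrations for 48 h, and endpoints were estimated by linear interpolation. GI50 is the concentration that inhibits growth by half. TGI: concentration producing complete growth inhibition.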

tested on: NCI-H322M lung; experiment: DTP human tumour cell line panel, 48 h

What does the source list for `CC1(C)CC[C@]2(C(=O)O)CC[C@]3(C)C(=CCC4[C@@]5(C)C[C@@H](O)[C@@H]6OC(c7ccccc7F)OC[C@@]6(C)C5CC[C@]43C)C2C1` (stereo not given in full)?
GI50: 3.3 µM; TGI: 14.3 µM

`CN(C)c1ccc(/C=C/c2n(Cc3ccc4ccccc4c3)c3ccccc3[n+]2Cc2ccc3ccccc3c2)cc1` was tested. Which GI50 did it give?
Its GI50 is 0.456 µM.

What about the TGI of the same molecule?
Its TGI is 1.7 µM.

What does the source list for `CCCSc1nc(Nc2ccc(S(N)(=O)=O)cc2)c(C#N)c(-c2cc(OC)c(OC)c(OC)c2)n1`?
GI50: 22.1 µM; TGI: > 100 µM

Which results are given for `CC(C)Sc1nc(NCCc2c[nH]c3ccccc23)c(C#N)c(-c2ccc(F)cc2)n1`?
GI50: 14.3 µM; TGI: 29.7 µM

Which GI50 does the source give for `CS(=O)(=O)Nc1ccc(-c2ccc3c(c2)ncn3-c2ccc(NC(=O)Nc3ccc(Br)cc3)cc2)cc1` here?
Its GI50 is 4.01 µM.

And the TGI?
The TGI was > 72.3 µM.
